These results are taken from publication PMC6919601, “Identification of Plasmodium dipeptidyl aminopeptidase allosteric inhibitors by high throughput screening” (PLoS ONE, 2019).

Molecules are shown by their SMILES. Out of some 110,000 compounds screened, about 230 (0.21%) showed an effect of 50% or more. The list shows a part of the results.
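Further: 30 min substrate incubation versus DMSO and 10 µM JCP410 controls.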

Sequence of DPAP1 (Q8IIJ9 whole entry, looked up): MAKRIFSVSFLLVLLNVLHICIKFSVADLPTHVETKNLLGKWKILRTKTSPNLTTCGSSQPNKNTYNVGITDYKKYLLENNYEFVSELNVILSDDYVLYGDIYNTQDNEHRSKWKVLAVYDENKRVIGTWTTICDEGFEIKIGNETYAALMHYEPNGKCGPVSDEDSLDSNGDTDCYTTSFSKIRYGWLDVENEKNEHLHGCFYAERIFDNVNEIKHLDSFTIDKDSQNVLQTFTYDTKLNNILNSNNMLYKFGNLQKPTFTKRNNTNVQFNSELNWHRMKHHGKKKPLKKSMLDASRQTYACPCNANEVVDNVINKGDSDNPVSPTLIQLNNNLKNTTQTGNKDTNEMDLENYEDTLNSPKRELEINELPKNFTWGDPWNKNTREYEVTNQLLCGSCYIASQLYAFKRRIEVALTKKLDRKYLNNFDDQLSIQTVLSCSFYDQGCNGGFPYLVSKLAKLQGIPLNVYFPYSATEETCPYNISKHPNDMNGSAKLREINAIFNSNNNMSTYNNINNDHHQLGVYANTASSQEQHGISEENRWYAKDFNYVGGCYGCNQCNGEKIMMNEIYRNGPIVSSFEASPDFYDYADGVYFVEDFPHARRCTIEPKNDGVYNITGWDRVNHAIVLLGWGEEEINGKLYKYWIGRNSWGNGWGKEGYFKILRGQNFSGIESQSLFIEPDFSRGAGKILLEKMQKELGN

The experiment concerns the target DPAP1 (Plasmodium falciparum, UniProt Q8IIJ9). Nature of the experiment: primary screen, percent inhibition; read by cleavage of a fluorogenic dipeptide substrate; higher = more effect of the substance. Also on record: species or system P. falciparum D10 trophozoite lysates; single well.
For `COC(=O)C1=C(O)/C(=C\c2ccccc2Cl)N=C1C`, the “% Inhibition @ 10 uM” value came to 2.16%. The figure for `Cc1oncc1NC(=O)[C@H](CC(C)C)NC(=O)c1ccc(N2CCN(C)CC2)cc1` is 0.173%; for `Cc1sc(NC(=O)COc2ccccc2)c(C(N)=O)c1C` it is 1.4%; for `CC(=O)NC(Cc1c[nH]c2ccccc12)C(=O)NCc1cccs1` (stereo not shown) it is -7.96%. Then `NC(=O)C1CCN(C(=O)c2cnn(-c3ccccc3)c2NC(=O)c2ccccc2F)CC1`, with -8.41%; and `CC(O)C(NC(=O)OCc1ccccc1)C(=O)NC(CCc1ccccc1)C(=O)CO` (stereo not shown), with -11%; and `CCn1c(SCC(N)=O)nc2c(c1=O)C1(CCCCC1)Cc1ccccc1-2`, with 1.02%. The figure for `CN(C)CCn1nnc2c(=O)oc3ccccc3c21` is -4.21%; for `Cc1c(Cl)cccc1-n1nc(C)c2c(C(F)(F)F)cc(=O)n(CC(=O)NCc3ccccc3)c21` it is -0.835%.

As to `CCOc1cc(CN2CCc3ccccc3C2)ccc1OC`, the “% Inhibition @ 10 uM” value is listed as -3.65%. The figure for `CCC(=O)OCC1OC(n2ccc(=O)[nH]c2=O)CC1OC(=O)CC` (stereo not shown) is -2.59%. On to `O=C1CC(c2cccs2)c2cc3c(cc2N1)OCO3` (stereo not shown), for which the “% Inhibition @ 10 uM” value amounted to 5.15%. Then `Cc1ccc(CSc2ncc(C#N)c(N)n2)cc1`, with 0.401%; and `O=C(O)c1ccn2c(C(=O)c3ccccc3)c(-c3ccccc3)cc2c1`, with -1.22%.

As to `CCOC(=O)c1cc(C)n(-c2ccc(C(=O)Nc3nc(C)cs3)cc2)c1C`, the “% Inhibition @ 10 uM” value is listed as 2.72%.

On to `O=c1c(-c2ccc3c(c2)OCCO3)coc2c(CN3CCN(CCO)CC3)c(O)ccc12`, for which the “% Inhibition @ 10 uM” value was -1.82%. Then `COc1ccc(S(=O)(=O)Nc2cccc(NS(=O)(=O)c3ccc(OC)cc3)c2)cc1`, with 2.03%. Consider `CCOc1ccc(CNCc2cccs2)cc1`, for which the “% Inhibition @ 10 uM” value amounted to 2.08%. Then `Cc1ccc(Cn2cc[nH]c(=O)c2=O)cc1`, with -4.58%; and `COc1ccc(C)cc1N(CC(=O)Nc1cccnc1)S(C)(=O)=O`, with 6.79%. In the case of `O=C(NCCNC(=O)Nc1ccc(Cl)cc1)Nc1ccc(Cl)cc1`, the “% Inhibition @ 10 uM” value was -7.28%. Then `Cc1ccc(S(=O)(=O)N(CC(=O)Nc2ccc3c(c2)OCO3)Cc2ccccc2F)cc1`, with -13.1%. In the case of `Cc1sc(NC(=O)Cc2cccc3ccccc23)c(C(N)=O)c1C`, the “% Inhibition @ 10 uM” value stood at 14.5%.

Turning to `O=S(=O)(c1ccsc1)c1ccsc1`, the “% Inhibition @ 10 uM” value is recorded as 3.31%. As to `C=CCn1c(=N)n(CC(=O)c2cccs2)c2ccccc21`, the “% Inhibition @ 10 uM” value was -7.12%. The figure for `N=C(NOC(=O)Cc1cccs1)c1ccc(Cl)cc1` is 3.27%; for `CCCCN1C(=O)C(O)=C(C(C)=O)C1c1ccc(F)cc1` (stereo not shown) it is -6.83%. Then `CCc1nc2cc(Cc3ccc4[nH]c(CC)nc4c3)ccc2[nH]1`, with 0.628%.
